Laboratory results reported in paper PMC8936499, “Cytochrome P450 168A1 from Pseudomonas aeruginosa is involved in the hydroxylation of biologically relevant fatty acids” (PLoS ONE, 2022).

Test system: P. aeruginosa strains DSMZ 22644 and ATCC 39324
Experiment: MIC determinations (Resazurin, M9 media with oleic acid as carbon source)
Conditions: Pseudomonas aeruginosa, ATCC39324|DSMZ22644, read-out: MIC (no inhibitory effect on growth up to highest concentration)

CC(C)(C)C(O)(CCc1ccc(Cl)cc1)Cn1cncn1 (stereo not shown) [tebuconazole]
MIC: > 128 µg/mL
